Measurements: patent publication US7745645B2, “Sulfonamide derivatives of xanthene compounds” (Pierce Biotechnology, Inc., priority 2007, dated 2010)

Tested on: Biotinylated-BSA
Assay: Plate assay using Streptavidin and NeutrAvidin conjugates
Type: binding
Settings: conjugate diluted 0.004 mg/ml in PBS; Biotinylated-BSA coated plates
Procedure: Data for functional assays using the compound of formula V conjugated each of Streptavidin and NeutrAvidin® are shown in FIGS. 2 and 3, respectively. The assays were performed on serially diluted 96-well white opaque Biotinylated-BSA coated plates (2 μg/ml to 0 μg/ml). The plates were washed 3×200 μl with PBS-0.05% Tween and 1×200 μl with PBS buffer. Formula V-Streptavidin (SA) and Formula V-NeutrAvidin® (NA) conjugates were diluted 0.004 mg/ml in PBS buffer. Diluted conjugates were applied to the wells of the plates (100 μl/well), the plates were covered and protected from light, incubated for one hour, then washed as previously described. PBS buffer was added to the plates (100 μl/well) and the fluorescent intensity was captured using the TECAN Safire® at green laser setting. Commercially available Alexa Fluor® 488-SA (Molecular Probes) was diluted to the same concentration and evaluated as previously described with reference to the formula V conjugated SA.

B1: Formula V conjugated NeutrAvidin: compound of formula V conjugated to NeutrAvidin Biotin Binding Protein (conjugate, UniProt P02701 25-152, looked up)
Avidin: ARKCSLTGKWTNDLGSNMTIGAVNSRGEFTGTYITAVTATSNEIKESPLHGTQNTINKRTQPTFGFTVNWKFSESTTVFTGQCFIDRNGKEVLKTMWLLRSSVNDIGDDWKATRVGINIFTRLRTQKE
modifications: deglycosylated avidin; formula V dye label
  biotinylated BSA detected at a level of: 2 ng/well
